pKd: −log10 of the molar value.
Biological target: 59-amino acid synthetic peptide comprising the full length SBP tag
Assay: SPR (BIAcoreX), SBP peptide thiol-coupled to the chip

Sequence of 59-amino acid synthetic peptide comprising the full length SBP tag (peptide, as listed by the source): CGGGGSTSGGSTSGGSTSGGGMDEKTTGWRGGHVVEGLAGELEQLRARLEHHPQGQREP

Substance: streptavidin mutein SBPM18 (S27A, G48T) (no sequence given) (designed binder)
- pKd: 8.12
- koff: 0.000821 s⁻¹
- kon: 107000 M⁻¹ s⁻¹

From patent publication US20140378657A1
